Measured values: ChEMBL document CHEMBL4888484, “Replenishing the malaria drug discovery pipeline: Screening and hit evaluation of the MMV Hit Generation Library 1 (HGL1) against asexual blood stage Plasmodium falciparum ,using a nano luciferase reporter read-out” (2022)
Among all 150,000 compounds or so, about 540 (0.36%) showed an effect of 50% or more. The list shows a part of the results.

What follows are compounds tested on Plasmodium falciparum (assay: Primary screen in NF54 nanoGlo assay, in single point, at 2uM, 72h; a lower Z score goes with more inhibition). Conditions: timepoint 72 hour.
Assay type: functional, Erythrocyte

Row | SMILES | % Inhibition | Z score
1 | CCOc1ncccc1CNc1nc(C2CC2)ns1 | -8% | 1.26
2 | CC1(C)COC[C@@H]1NC(=O)c1ccc(CN2CCNC(=O)C2)cc1 | 2% | -0.39
3 | CCn1nccc1CNc1ccc(-c2nncn2-c2ccccc2)cn1 | -19% | 2.34
4 | C[C@@H](CN1CCOCC1)NC(=O)c1cc(Cl)c(Cl)n1C | -2% | 0.32
5 | CC(C)=CC[C@]1(C(=O)O)CCCN(Cc2nnc(C)s2)C1 | 4% | -0.72
6 | COc1ccc(N2CCN(Cc3ccoc3)CC2)cc1 | -11% | 2.12
7 | CCc1noc([C@H](C)NC(=O)c2cc(Cn3ccnc3C(C)C)[nH]n2)n1 | -2% | 0.4
8 | CCN1CC2(CCN(Cc3cccnc3)CC2)C[C@@H](c2ccccc2)C1=O | 4% | -0.87
9 | Cc1cc([C@@H](O)CNC(=O)c2ccc(Br)o2)c(C)o1 | -7% | 1.39
10 | CC1(F)CCCN(CC2CCCOC2)C1 (stereo not drawn) | -4% | 0.88
11 | CC[C@H]1C(=O)NCCCN1C(=O)Cc1n[nH]c2c1CCCC2 | -5% | 0.84
12 | OC1(CNc2ccc3cccc(Br)c3n2)CCOCC1 | -3% | 0.38
13 | NC(=O)Cn1ccnc1-c1cncc(Br)c1 | 4% | -0.46
14 | COC[C@@H]1CN(c2ccncn2)C[C@H]1C(=O)NCCn1cccn1 | -6% | 0.95
15 | Cn1cc(-c2csc(CNc3ccn(CC(F)F)n3)n2)cn1 | -4% | 0.65
16 | CCOc1ccccc1-c1cc(C(=O)NCCc2ccccc2)c2c(-c3ccccc3)[nH]nc2n1 | -4% | 0.51
17 | CN1c2cc(F)c(NC(=O)NCc3cccs3)cc2N(C)S1(=O)=O | -19% | 2.42
18 | Cc1ccc(NCCNCc2ccccc2Cl)nn1 | 28% | -3.18
19 | O=C(OCc1cc(Cl)c2c(c1)OCO2)c1cnccn1 | 30% | -3.82
20 | COc1c2c(cc3c1[C@H](C(=O)NC(c1ccccc1)c1ccccc1)[N+](C)(C)CC3)OCO2 | 2% | -0.21
21 | CCn1nnnc1NC(=O)NCCc1[nH]nc2c1CCCC2 | 2% | -0.24
22 | O=C(c1ccc2[nH]ccc2c1)N1CC(c2nc(C3CC3)no2)C1 | -11% | 2.09

Row | SMILES | % Inhibition | Z score
23 | CCS(=O)(=O)Cc1ccc(NC(=O)NCC2=CCCCC2)cc1 | -8% | 1.05
24 | COCCn1cnc2c(-c3ccccc3)cn(CC(=O)Nc3ccc4c(c3)OCO4)c2c1=O | -5% | 0.91
25 | CC(C)(C)CNC(=O)CC1(C(=O)NCC(C)(C)C)CCOCC1 | -9% | 0.76
26 | CN(CCc1cnn(C)c1)Cc1nc(-c2ccccc2)cs1 | -3% | 0.48
27 | O=C(Cc1ccc(-c2ccccc2)cc1)Nc1cccnc1 | 29% | -3.9
28 | CCCn1cnc2cc(-c3noc(-c4cccc(F)c4)n3)ccc21 | -6% | 0.73
29 | Fc1cc(-c2cnc3nncn3c2)cc(F)c1F | -8% | 0.98
30 | O=C(c1ccco1)N1CCN(c2cnsn2)CC1 | -24% | 3.11
31 | O=C(NCC#Cc1cccc(F)c1)C1CCS(=O)(=O)CC1 | 1% | -0.1
32 | Cc1cc(Nc2[nH]nc(N)c2C#N)ccc1F | 0% | -0.04
33 | O=S(=O)(c1ccc(N2CCCC2)c(NCc2c(F)cccc2Cl)c1)N1CCOCC1 | -15% | 3.01
34 | Cc1cc(-c2ccccc2)nc(CN(C)Cc2nc(C)c[nH]2)n1 | 3% | -0.44
35 | CC(C)c1nnc(NC(=O)c2scnc2C(C)(C)C)[nH]1 | 1% | -0.1
36 | COCCCNC(=O)Nc1nnc(N(C)Cc2ccccc2)s1 | -5% | 0.77
37 | Cc1ccc2nc3c(c(C(=O)O)c2c1)CCCC3=Cc1cnn(C(C)C)c1 | -5% | 0.72
38 | CC(C)c1nc2c(c(OC3CCN(C(=O)NCCc4ccccc4)CC3)n1)CCOCC2 | -10% | 1.57
39 | CCOC1CC(O)(CNC(=O)C(C)C)C1(C)C (stereo not drawn) | -7% | 1.12
40 | O=C(CCn1ccnn1)Nc1ccc(OC2CCCC2)c(Cl)c1 | -38% | 4.42
41 | COc1cccc(NC(=O)c2n[nH]c3c2CCc2ccccc2-3)c1 | -13% | 1.13
42 | CC(=O)Nc1ccc(C(=O)N[C@H]2CCCC[C@H]2CC(F)(F)F)nc1 | -10% | 1.28
43 | C[C@H](OCC1CC1)C(=O)N1CCN(c2ncccn2)CC1 | -4% | 0.65
44 | COc1ccccc1CNC(=O)c1cnc(N2CCOCC2)nc1N | -5% | 0.52
